Experimental data: the supplement of paper PMC10126150
Sequences with one replicate were seen in a single cluster, so their values are uncertain.

System: ATP
Test: switch fluorescence ratio, 500 uM ATP over buffer (Cy3 cluster intensity, sum of 5 cycles each) (fold (ratio)); higher = stronger signal-on switching upon ATP binding; sequences stand for … in TCGTCGGCAGCGTCAGATGTGTATAAGAGACAGTTTTTTTTTTTTTTTTTTTTTTTTT…TC
Conditions: aptamer strand: ATP DNA aptamer (quencher-CACCTGGGGGAGTATTGCGGAGGAAGG + anchor), 100 nM annealed; ATP concentration: 500 uM; one replicate
Procedure, shortened: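 Values give the fluorescence ratio for each switch-domain sequence, averaged from per-cluster ratios of summed target-cycle to summed buffer-cycle Cy3 intensity. The Cy3-labelled switching-strand clusters sat on a modified Illumina MiSeq flow-cell, were annealed to 100 nM quencher-labelled ATP aptamer, and were imaged in selection buffer, then after 15 min with 500 uM ATP at 22 °C. Five cycles ran with NaOH stripping and re-annealing between them, and clusters outside 100-1000 RFU were excluded.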
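Also: ATP exposure 15 min at 22 °C before imaging.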

Sequence	switch fluorescence ratio
CGTAGTGGCC	0.999
TTGTGCCGCA	1
ATGTCATTAC	1.21
GCAAGATTCG	1.09
CCTGGATATA	0.975
TAGAGATTGA	1.02
TAGATTTGAC	1.02
AGTCCCCTTC	1.09
AGAATGACA	1.06
GACTTGGCCT	1.06
TGATGTGGG	0.956
TTCTCTACG	1.56
ACGCTGGACT	1.34
CGCGCTGGGG	1.06
ATGAGTGAAC	0.89
CGATTCCGGA	0.954
GTCGATAACG	0.983
GTGCCTCAAC	1.03
AGGATAAGT	0.971
CGCTGGTAGA	1.06
ATACTTGGCG	1.01
GGCCCATTTT	0.98
CCAAGCACTA	3.49
GGAGCCGAGG	0.966
GTACTTCC	2.66
GGGGGTTTCC	1.02

Sequence	switch fluorescence ratio
TTTTGAGG	0.966
GGGGCAAACG	1.03
ATGTCAGCTT	0.971
CATTGGACGC	0.999
TACCATGGCT	0.978
AAACATTTCC	1.29
CTACTGCGCA	1.33
ACCGGGTACG	1.07
AGCACAGACT	1.31
ATGTCCTGAA	1
ATTTCGCCTT	1.05
TGCATGCAGT	0.995
TTGATGTTAC	1.83
GGACGTTCGT	0.96
ATTATCTTAG	1.01
CTTCTTGTAT	1.02
TTTGTCGACG	0.953
AAATGACTCG	1.03
ATAGGCACTA	1
TTCAGCGACG	0.996
CAGTAGGG	0.999
TGATAGTGGT	0.997
GTGGTCCTAA	0.971
CTTAGTGTTG	1.02
GGACTTATAG	1.03
GTTGGAGCAA	1.77

Sequence	switch fluorescence ratio
AGAGATAATA	1.04
TGGGGAGTTC	1.02
CGAACCGGGC	1.13
TCTCGCGATT	1.76
GGAGAGGCCA	1.07
TTATGTTCTG	0.952
CTGTGAAGAG	0.998
CTATGAGCAA	4.7
ACGTTGTCAG	1.03
GCAGCTGACG	1.06
TATTCATAAA	0.986
AGTGGCGAGC	0.983
CAGTCTCCC	1.04
TCGTGTAAGT	0.983
GATAGATTAT	1.01
ACGTCAGTGC	1.21
ATCTTCATAG	0.986
GAATAGCTTT	0.988
TCAGCGTCGG	0.948
AAAAGAAACA	1.14
AGTGGGCGTC	0.994
TTGCTAAGAC	1.54
CAAAATATCT	1.05
AGCGACTTTC	1.01
GCACGATAGG	1.03
GGGCCCTGAT	0.996

Sequence	switch fluorescence ratio
AGGAGACCT	1.28
GCTAATCTAG	1
CACTAACATG	1.11
AGGGCAGTGT	1.02
CTATGTGTTA	0.986
TAATGGAGA	0.998
AGTCGAATTC	0.967
ATAATCCGAC	1.28
TGTTGAGTGA	0.996
AGATGCAGGG	0.947
GCGATGTCGC	1.05
ACTGTGAGCC	0.984
TTTGCGCAAA	2.82
TCGGTACATT	1.04
TTGGCAATCC	1.71
CTGAGTCTT	1.04
TCGCGCTAGT	0.994
GTAAATTGCG	1
GGCGGAAGTG	0.99
CAACACGCAT	1.96
TGATTTGGAA	1.02
CGAGATACTT	1.2
TTGGCGTCT	1.21
GGCTCTACTA	1.2
CTGATTCAAA	0.988
TATAATGGA	0.993

Sequence	switch fluorescence ratio
ATTAACCGAA	1.07
CTTAGCGTAG	0.956
GGATTTTAAG	1.02
GTAAAAAGGC	1.02
AGAGTGCTTT	0.977
CGGGAAGATG	1
ACTCGACAGT	1.11
GCAACATTAG	1.04
AAAACCACCA	1.05
AGCGGAGCCG	0.884
AGTTGAATCA	1.02
CCTGCCGTAC	3.38
TTCCGGGTAG	1.03
TCGAGTTTAG	1.02
TTAAGCCCTA	1.03
TACAGGAAGG	0.979
CTCTAATCAG	1
ATGATGGCTA	0.981
TGATTGAC	1.01
ATGAGCGGAG	1
GTTTCCCACC	1.06
GCCTTGTTAG	1
GGGATCACTT	1.05
TAGGCCCAGT	0.993
CATCTGGACG	0.977
GCGTTAGATC	1.06

Sequence	switch fluorescence ratio
GCAGATGGCC	0.98
ACTAGTTAAA	1.04
AAATACGTTG	1.03
GGGAAATAAT	1.06
TTTACGGCAG	1.07
TCCTCAGAGA	1.5
TAACCGTAAC	1.64
GGTTAGCAAT	2.01
ATAGCGCCGG	1.02
TGAACCAAAA	1.14
TGGGTCGTCA	0.969
GGTGAATGAC	1.01
TTCTGAAGAG	1.01
GCAACAAGTC	1.05
CGACGCCCGA	1.95
TTCAATTAGG	0.994
GTGTTCATGT	0.974
CACTTTTCGC	0.988
GAAACAACGT	1.02
AAAGCTCAA	0.997
GTTCGGTCGG	1
CGCGCACTCA	1.78
CAAATAAGCA	1.03
TACCGCTGCT	1.08
GCGTAAAAGT	0.962
AAGGATAAAT	0.981

Sequence	switch fluorescence ratio
CTAATGTAGG	1
AACGTATAGG	1.03
CTACGTAC	1.95
GTAGCGTTGC	1.15
AACTTTGGTA	1
TTTTTGCAA	2.11
AGTAGCACCC	1.04
CAAACCTCCA	1.28
AAAGGGTCCC	0.979
ACCTAGGGAT	1.04
CGGGCTGAGG	0.997
TAGGGTTAGC	1.03
GTTACCAGCT	0.99
TTCAGCTATG	0.977
CGTGCCTTTT	1
AACGACTGTT	1.05
TCATAATATT	0.989
CCGAATAATC	4.19
CCTGGACGTG	0.98
GACCTATTAT	1.01
AAACCGGTTA	0.993
GGCCTTTTAC	1.04
TGTAATCCAA	1.02
TGTATTGTC	1.02
GCTGCTCGAT	1.01
CGGAGATAGC	1.03

Sequence	switch fluorescence ratio
GAGTGTGGAG	0.983
CATTACGTTT	1.01
GTACGAAATG	1.05
ATTTGGAACG	1.02
TCTGGGCGTT	0.965
AAAATATATA	1.04
CTGTGGAC	1.01
CGGTTGGTGT	0.979
GGCTCATCTA	1.01
TACTAGTTTA	0.957
GGGCTGGCAT	0.954
GATAACCATA	1.02
TATTTTGGCA	0.984
ACCGAGCCGT	1.02
GATAGTTAAT	1
GTTAACGGTA	1.04
GAACTGGACA	1.11
GGAGCTGCCT	1.05
GTCCTGCGGG	0.92
